# The supplement of paper PMC10369915
# The list shows a part of the results. Rule as the data show it: active = 3.2 or more and inactive = the rest. The signal is at background level for most entries.
# B1: E2AK3_HUMAN_619 (peptide)
# chain: NKVDDCNYAIKRIRL
# B2: EAA2_HUMAN_539 (peptide)
# chain: SNSNQCVYAAHNSVI
# B3: ECE2_HUMAN_39 (peptide)
# chain: GAADSAPYDWFGDFS
# B4: EF2_HUMAN_265 (peptide)
# chain: KKLWGDRYFDPANGK
# B5: EF2_HUMAN_373_YA (peptide)
# chain: KARCELLYEGPPDDE
# B6: EFS_HUMAN_253 (peptide)
# chain: GGTDEGIYDVPLLGP
# B7: EGFR_HUMAN_1092 (peptide)
# chain: TFLPVPEYINQSVPK
# B8: EGFR_HUMAN_727 (peptide)
# chain: SGAFGTVYKGLWIPE
# B9: EGFR_HUMAN_764 (peptide)
# chain: KEILDEAYVMASVDN
# B10: EHD4_HUMAN_451 (peptide)
# chain: VAKDKPVYDELFYTL
# B11: EHD4_HUMAN_451_YA (peptide)
# chain: VAKDKPVYDELFATL
# B12: EIF3I_HUMAN_308 (peptide)
# chain: SSGGEDGYVRIHYFD
# B13: EIF3I_HUMAN_308_YA (peptide)
# chain: SSGGEDGYVRIHAFD
# B14: EIF3J_HUMAN_254 (peptide)
# chain: DGGYVQDYEDFMGGG
# B15: EIF3J_HUMAN_254_YA (peptide)
# chain: DGGAVQDYEDFMGGG
# B16: ELAVL1_HUMAN_63 (peptide)
# chain: VAGHSLGYGFVNYVT
# B17: ELMO1_HUMAN_18 (peptide)
# chain: AIEWPGAYPKLMEID
# B18: ELMO1_HUMAN_395 (peptide)
# chain: AKHHQDAYIRIVLEN
# Molecular target: SHP2 C-SH2 domain E139D
# Test: enrichment score (SH2-bound / input frequency) (ratio); bacterial display of known human phosphotyrosine sites (pTyr-Var adds point mutants) read by sequencing; higher = stronger binding; tyrosines were phosphorylated by kinases first
# Conditions: peptide library: Human pTyr
# 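Also: displayed peptides selected on beads carrying the immobilized SH2 domain, with library peptides lacking any tyrosine serving as negative controls.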
row,Binder,enrichment score
1,B1,inactive: 1.23
2,B2,inactive: 1.15
3,B3,inactive: 0.538
4,B4,inactive: 1.55
5,B5,inactive: 1.04
6,B6,inactive: 0.586
7,B7,inactive: 1.02
8,B8,inactive: 0.856
9,B9,inactive: 0.764
10,B10,inactive: 0.989
11,B11,inactive: 0.911
12,B12,inactive: 0.973
13,B13,inactive: 0.612
14,B14,inactive: 0.787
15,B15,inactive: 0.693
16,B16,inactive: 1.29
17,B17,inactive: 0.734
18,B18,inactive: 2.24

# Molecular target: SHP2 C-SH2 domain wild-type
# Test: as above
# Conditions: peptide library: Human pTyr
row,Binder,enrichment score
1,B1,inactive: 1.25
2,B2,inactive: 0.906
3,B3,inactive: 0.461
4,B4,inactive: 1.46
5,B5,inactive: 1.05
6,B6,inactive: 0.49
7,B7,inactive: 0.895
8,B8,inactive: 1.51
9,B9,inactive: 0.736
10,B10,inactive: 0.927
11,B11,inactive: 0.925
12,B12,inactive: 2.26
13,B13,inactive: 0.993
14,B14,inactive: 0.702
15,B15,inactive: 0.708
16,B16,inactive: 1.21
17,B17,inactive: 0.66
18,B18,inactive: 1.85

# Molecular target: SHP2 N-SH2 domain L43F
# Test: as above
# Conditions: peptide library: Human pTyr
row,Binder,enrichment score
1,B1,inactive: 1.17
2,B2,inactive: 1.05
3,B3,inactive: 0.478
4,B4,inactive: 1.48
5,B5,inactive: 1.24
6,B6,inactive: 0.69
7,B7,inactive: 0.866
8,B8,inactive: 0.859
9,B9,inactive: 0.918
10,B10,inactive: 0.933
11,B11,inactive: 0.863
12,B12,active: 3.48
13,B13,inactive: 0.744
14,B14,inactive: 0.717
15,B15,inactive: 0.642
16,B16,inactive: 1.28
17,B17,inactive: 0.766
18,B18,inactive: 1.66

# Molecular target: SHP2 N-SH2 domain T42A
# Test: as above
# Conditions: peptide library: Human pTyr
row,Binder,enrichment score
1,B1,inactive: 1.24
2,B2,inactive: 1.11
3,B3,inactive: 0.475
4,B4,inactive: 1.49
5,B5,inactive: 1.18
6,B6,inactive: 0.559
7,B7,inactive: 0.845
8,B8,inactive: 0.772
9,B9,inactive: 0.786
10,B10,inactive: 1.03
11,B11,inactive: 0.938
12,B12,inactive: 1.09
13,B13,inactive: 0.534
14,B14,inactive: 0.618
15,B15,inactive: 0.579
16,B16,inactive: 1.42
17,B17,inactive: 0.674
18,B18,inactive: 2.04

# Molecular target: SHP2 N-SH2 domain T52S
# Test: as above
# Conditions: peptide library: Human pTyr
row,Binder,enrichment score
1,B1,inactive: 1.29
2,B2,inactive: 1.16
3,B3,inactive: 0.572
4,B4,inactive: 1.83
5,B5,inactive: 1.32
6,B6,inactive: 0.49
7,B7,inactive: 1.17
8,B8,inactive: 0.738
9,B9,inactive: 0.808
10,B10,inactive: 1.03
11,B11,inactive: 1.03
12,B12,inactive: 2.32
13,B13,inactive: 0.628
14,B14,inactive: 0.646
15,B15,inactive: 0.615
16,B16,inactive: 1.35
17,B17,inactive: 0.952
18,B18,inactive: 2.23

# Molecular target: SHP2 N-SH2 domain wild-type
# Test: as above
# Conditions: peptide library: Human pTyr
row,Binder,enrichment score
1,B1,inactive: 1.5
2,B2,inactive: 1.06
3,B3,inactive: 0.637
4,B4,inactive: 1.75
5,B5,inactive: 1.34
6,B6,inactive: 0.58
7,B7,inactive: 0.679
8,B8,inactive: 0.669
9,B9,inactive: 0.894
10,B10,inactive: 1.1
11,B11,inactive: 0.986
12,B12,inactive: 0.68
13,B13,inactive: 0.494
14,B14,inactive: 0.776
15,B15,inactive: 0.58
16,B16,inactive: 1.53
17,B17,inactive: 0.701
18,B18,inactive: 2.48
